Assay results as given in the supplement of paper PMC9938546.
Structures can show the parent of a compound that is named as a salt. Some of the results follow. Repeats are few or missing, and single values can be far off.

Test system: HCT116-GFP
Experiment: HCT116-GFP viability (GFP intensity) relative to untreated control, monoculture; higher = less cancer cell killing
Conditions: culture: HCT116-GFP monoculture; 10 µM; 72 h
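Also: viability estimated indirectly by image-based GFP quantification with live-cell imaging of the constitutively GFP-expressing human colorectal cancer line, no immune cells added.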

SMILES | HCT116-GFP viability
CCC(C)(CN(C)C)OC(=O)c1ccccc1 (stereo unspecified) [Amyleine hydrochloride] | 108%
NC(=O)c1cccnc1 [Nicotinamide] | 111%
Cn1c(=O)c2c(ncn2CC(O)CO)n(C)c1=O (stereo unspecified) [Diprophylline] | 106%
CC(C)(Oc1ccc(C2CC2(Cl)Cl)cc1)C(=O)O (stereo unspecified) [Ciprofibrate] | 106%
CC1=C(C(=O)O)N2C(=O)[C@@H](NC(=O)[C@H](N)c3ccc(O)cc3)[C@H]2SC1 [Cefadroxil] | 87.1%
C=CCN1CCCC1CNC(=O)c1cc2nn[nH]c2cc1OC (stereo unspecified) [Alizapride hydrochloride] | 112%
CNCC[C@@H](Oc1cccc2ccccc12)c1cccs1 [(R)-Duloxetine hydrochloride] | 62.8%
CC(CCc1ccc(O)cc1)NCCc1ccc(O)c(O)c1 (stereo unspecified) [Dobutamine hydrochloride] | 85.6%
Nc1ccc(S(N)(=O)=O)cc1 [Sulfanilamide] | 124%
CCC(C)(C)c1ccc(CC(C)CN2C[C@@H](C)O[C@@H](C)C2)cc1 (stereo partly specified) [Amorolfine hydrochloride] | 83.6%
CC[C@]12CCCN3CCc4c(n(c5ccccc45)[C@@](O)(C(=O)OC)C1)[C@@H]32 [Vincamine] | 92.8%
CC[C@@]1(O)C(=O)OCc2c1cc1n(c2=O)Cc2cc3c(CN(C)C)c(O)ccc3nc2-1 [Topotecan] | 2.84%
Nc1nnc(-c2cccc(Cl)c2Cl)c(N)n1 [Lamotrigine] | 104%
Clc1cc(Cl)c(OCC#CI)cc1Cl [Haloprogin] | 4.26%
Nc1nc(=O)[nH]cc1F [Flucytosine] | 87.9%
Cc1cccc(C)c1NC(=O)CN1CCN(CCCC(c2ccc(F)cc2)c2ccc(F)cc2)CC1 [Lidoflazine] | 87.4%
CC(=O)O[C@]1(C(C)=O)CC[C@H]2[C@@H]3C=C(C)C4=CC(=O)CC[C@]4(C)[C@H]3CC[C@@]21C [Megestrol acetate] | 97.9%
CC(C)(C)NCC(O)COc1cccc2c1CC(O)C(O)C2 (stereo unspecified) [Nadolol] | 102%
CCOCCn1c(N2CCCN(C)CC2)nc2ccccc21 [Emedastine] | 98.6%
CC[C@H](C)C(=O)O[C@H]1C[C@H](O)C=C2C=C[C@H](C)[C@H](CC[C@@H](O)C[C@@H](O)CC(=O)O)[C@H]21 [Pravastatin] | 93.4%
Cc1cccn2c(=O)c(-c3nnn[nH]3)cnc12 [Pemirolast potassium] | 97.2%
CC(=O)NC[C@H]1CN(c2ccc(N3CCOCC3)c(F)c2)C(=O)O1 [Linezolid] | 83.4%
Cc1nccn1CC1CCc2c(c3ccccc3n2C)C1=O (stereo unspecified) [Ondansetron Hydrochloride] | 95.8%
COc1ccc2c(c1)c(CC(=O)OCC(=O)O)c(C)n2C(=O)c1ccc(Cl)cc1 [Acemetacin] | 93.6%
CCCCC1C(=O)N(c2ccccc2)N(c2ccccc2)C1=O [Phenylbutazone] | 85.9%
CCCCOC(=O)c1ccc(O)cc1 [Butylparaben] | 92%

SMILES | HCT116-GFP viability
CCCc1nc2c(C)cc(-c3nc4ccccc4n3C)cc2n1Cc1ccc(-c2ccccc2C(=O)O)cc1 [Telmisartan] | 89.1%
N=C(N)N1CCc2ccccc2C1 [Debrisoquin sulfate] | 107%
CC(=O)/N=c1/sc(S(N)(=O)=O)nn1C [Methazolamide] | 86.6%
COCCCOc1ccnc(C[S+]([O-])c2nc3ccccc3[nH]2)c1C (stereo unspecified) [Rabeprazole Sodium salt] | 95.8%
O=C(O)Cc1cc(I)c(Oc2ccc(O)c(I)c2)c(I)c1 [Tiratricol, 3,3',5-triiodothyroacetic acid] | 67%
CNCC[C@@H](Oc1ccccc1C)c1ccccc1 [Tomoxetine hydrochloride] | 127%
O=C(CCCCC(=O)Nc1c(I)cc(I)c(C(=O)O)c1I)Nc1c(I)cc(I)c(C(=O)O)c1I [Iodipamide] | 101%
Cc1c(F)c(N2CCNC(C)C2)cc2c1c(=O)c(C(=O)O)cn2C1CC1 (stereo unspecified) [Grepafloxacin] | 91.2%
CC(=O)OCC(=O)[C@@]12OC3(CCCC3)O[C@@H]1C[C@H]1[C@@H]3CCC4=CC(=O)C=C[C@]4(C)[C@@]3(F)[C@@H](O)C[C@@]12C [Amcinonide] | 96.5%
N=C(N=C(N)N)N1CCOCC1 [Moroxidine hydrochloride] | 119%
CCCC(=O)Nc1ccc(OCC(O)CNC(C)C)c(C(C)=O)c1 (stereo unspecified) [Acebutolol hydrochloride] | 91%
CN1[C@@H]2CC[C@H]1C[C@@H](OC(c1ccccc1)c1ccccc1)C2 [Benztropine mesylate] | 102%
CC(=O)Nc1ccc(OCC(O)CNC(C)C)cc1 (stereo unspecified) [Practolol] | 100%
O=C(Nc1ccccc1)OCC(CN1CCCCC1)OC(=O)Nc1ccccc1 (stereo unspecified) [Diperodon hydrochloride] | 99.3%
Cc1ccc(C)c(OCCCC(C)(C)C(=O)O)c1 [Gemfibrozil] | 101%
O=C(CCCN1CCC(O)(c2ccc(Cl)cc2)CC1)c1ccc(F)cc1 [Haloperidol] | 89.9%
NC(=O)c1ccc[n+]([C@@H]2O[C@H](COP(=O)([O-])OP(=O)(O)OC[C@H]3O[C@@H](n4cnc5c(N)ncnc54)[C@H](O)[C@@H]3O)[C@@H](O)[C@H]2O)c1 [Nadide] | 99.8%
CNCCC=C1c2ccccc2C=Cc2ccccc21 [Norcyclobenzaprine] | 78.8%
NC(=O)OCC(O)COc1ccc(Cl)cc1 (stereo unspecified) [Chlorphensin carbamate] | 107%
COCCOC(=O)C1=C(C)NC(C)=C(C(=O)OC(C)C)C1c1cccc([N+](=O)[O-])c1 (stereo unspecified) [Nimodipine] | 102%
CN1C(C(=O)Nc2ccccn2)=C(O)c2ccccc2S1(=O)=O [Piroxicam] | 93.1%
COC(=O)CCc1ccc(OCC(O)CNC(C)C)cc1 (stereo unspecified) [Esmolol hydrochloride] | 122%
C[C@]12CCC(=O)C=C1C=C[C@@H]1[C@@H]2CC[C@@]2(C)[C@H]1CC[C@@]21CCC(=O)O1 [Canrenone] | 108%
COc1cccc(N(C)C(=S)Oc2ccc3c(c2)CCCC3)n1 [Liranaftate] | 136%
CCCNC(C)C(=O)Nc1c(C)csc1C(=O)OC (stereo unspecified) [Articaine hydrochloride] | 88.7%
